{
  "source": "PubChem BioAssay AID624418",
  "about": "(National Center for Advancing Translational Sciences (NCATS), 2012)",
  "note": "The campaign covered roughly 410,000 compounds. About 530 (0.13%) were called active. Inconclusive results, whose numbers are uncertain, are shown with a selection of clear calls. Calls come from the whole dose curve; as a rule, active = well fitted inhibition curve with a large enough effect; inconclusive = small, poorly fitted or top-dose-only effect, or another doubt; inactive = no such curve, though single readings can be large or run the other way. Potencies of inconclusive entries are doubtful fits and often do not repeat.",
  "data": [
    {"assay": "qHTS of GLP-1 Receptor Inverse Agonists: Cytotox Screen; note: potency is the fitted concentration of half-maximal effect", "details": "HEK293 cAMP-luciferase reporter cells, luminescence, 24 h; series mostly up to 38.3 µM", "in_short": "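Seeding density was 200 cells/uL; after overnight-length (12 h) culture, 23 nL compounds went on for 24 h at 37 °C. Readout used a luciferase detection reagent, luminescence taken after 12 min at room temperature.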", "values": [
      {"molecule": "COc1cccc(C2CC(=O)Nc3cc(C)c(C)cc32)c1", "note": "(configuration not stated)", "Potency": "inconclusive: 8.91 µM [inhibitor, partial curve, poor fit]"},
      {"molecule": "CCCc1ccc(OCc2ccc(C(=O)N3CCN(c4ccccn4)CC3)o2)c(OC)c1", "Potency": "inconclusive: 7.08 µM [inhibitor, partial curve, poor fit]"},
      {"molecule": "COc1ccc(CNC(=O)COC(=O)c2ccc(S(=O)(=O)N3CCCCC3)cc2)cc1", "Potency": "inconclusive: 11.2 µM [inhibitor, single point]"},
      {"molecule": "COc1ccc(C)cc1NC(=O)C1CCCN(S(=O)(=O)c2ccc3c(c2)oc(=O)n3C)C1", "note": "(configuration not stated)", "Potency": "inactive"},
      {"molecule": "COc1cccc(NC(=O)CN(C)C(=O)c2ccc(NC3CC3)c([N+](=O)[O-])c2)c1", "Potency": "inconclusive: 11.2 µM [inhibitor, single point]"},
      {"molecule": "Cc1ccnn1CC(=O)N/N=C/c1cn[nH]c1-c1ccc(F)cc1", "Potency": "inconclusive: 28.2 µM [inhibitor, single point]"},
      {"molecule": "CCC1Nc2ncnc(N3CCc4ccccc4C3)c2N(Cc2ccc(Br)cc2)C1=O", "note": "(configuration not stated)", "Potency": "inconclusive: 28.2 µM [inhibitor, single point]"},
      {"molecule": "CNC(=O)c1cccc(NC(=O)c2cc(-c3ccccc3)nc3c2cnn3C(C)C)c1", "Potency": "inconclusive: 10 µM [inhibitor, single point]"},
      {"molecule": "COc1cccc(CNC(=O)CN(c2ccc(C(C)C)cc2)S(=O)(=O)c2c(C)n[nH]c2C)c1", "Potency": "inactive"},
      {"molecule": "COC(=O)c1ccc2c(c1)N(Cc1ccccc1F)C(=O)c1ccccc1S2=O", "note": "(configuration not stated)", "Potency": "inconclusive: 15.8 µM [inhibitor, single point]"},
      {"molecule": "CCOC(=O)C1CCN(C(=O)CCCOc2ccccc2)CC1", "Potency": "inconclusive: 4.47 µM [inhibitor, full curve]"},
      {"molecule": "O=C(CN1C(=O)C2(OCCCO2)c2ccccc21)NCCc1ccccc1", "Potency": "inactive"},
      {"molecule": "CC(C)OC(=O)c1cc2c(ccn2C)n1CC(=O)N1CCC(Cc2ccccc2)CC1", "Potency": "inconclusive: 31.6 µM [inhibitor, single point]"},
      {"molecule": "O=C(NC(=S)N1CCN(c2nc(-c3ccccc3)cs2)CC1)c1cncc(Br)c1", "Potency": "inconclusive: 20 µM [inhibitor, single point]"},
      {"molecule": "O=[N+]([O-])c1ccccc1-c1cc(-c2cc(Cl)ccc2O)n[nH]1", "Potency": "inconclusive: 11.2 µM [inhibitor, single point]"},
      {"molecule": "Fc1ccccc1-n1c(-c2ccc3ccccc3n2)n[nH]c1=S", "Potency": "inconclusive: 10 µM [inhibitor, single point]"},
      {"molecule": "CN1CCCN=C1/C=C/c1cccs1", "Potency": "inactive"},
      {"molecule": "Nc1ccccc1Nc1cc(-c2ccccc2)nn1-c1ccccc1", "Potency": "inconclusive: 11.2 µM [inhibitor, single point]"},
      {"molecule": "CC1CCN(CCCNC(=O)c2cc3c(s2)-c2ccccc2OC3)CC1", "Potency": "inactive"},
      {"molecule": "Cc1ccc(S(=O)(=O)NCCCC(=O)O)cc1", "Potency": "inactive"},
      {"molecule": "CN(C1=C(N2CCCCC2)C(=O)c2ccccc2C1=O)c1ccccc1", "Potency": "inconclusive: 10 µM [inhibitor, partial curve]"},
      {"molecule": "Cc1ccc(S(=O)(=O)Nc2cccc(-c3ccc(N4CCCCC4)nn3)c2)s1", "Potency": "inactive"},
      {"molecule": "CCN=C1S/C(=C\\c2cn(CC)c3ccccc23)C(=O)N1CC", "Potency": "inactive"},
      {"molecule": "CCN(CC)C(=O)C1=C(C)N(Cc2ccc(C(C)(C)C)cc2)C(=O)C(CC(=O)NCC2CCCCC2)C1", "note": "(configuration not stated)", "Potency": "inconclusive: 28.2 µM [inhibitor, single point]"},
      {"molecule": "COc1cccc(CC(=O)NC2CCCN(Cc3ccc(Cl)cc3)C2)c1", "note": "(configuration not stated)", "Potency": "inactive"},
      {"molecule": "Cc1onc(-c2ccccc2)c1C(=O)N/N=C(\\N)COc1ccc(Cl)cc1", "Potency": "inconclusive: 31.6 µM [inhibitor, single point]"},
      {"molecule": "CCN(CC)c1ccc(/C=N/Nc2nc(C)cc(C)n2)c(O)c1", "Potency": "inconclusive: 25.1 µM [inhibitor, single point]"},
      {"molecule": "Cc1oc(-c2cccc(Cl)c2)nc1CN1CCC(C(=O)NCCCN2CCN(c3cccc(Cl)c3)CC2)CC1", "Potency": "inactive"},
      {"molecule": "Cc1ccc(NC(=O)c2ccc(Cl)cc2[N+](=O)[O-])nc1", "Potency": "inconclusive: 11.2 µM [inhibitor, single point]"},
      {"molecule": "COc1ccc(/C=C/C(=O)N(C)CC(=O)Nc2cccc(F)c2)cc1S(=O)(=O)N1CCCCC1", "Potency": "inconclusive: 10 µM [inhibitor, single point]"},
      {"molecule": "COCCn1nnnc1CN(CCc1ccccc1)Cc1cc2ccc(C)cc2[nH]c1=O", "Potency": "inconclusive: 28.2 µM [inhibitor, single point]"},
      {"molecule": "CN(C)C(=O)Cn1c(SCC(=O)Nc2ccc3c(c2)OCO3)nc2ccccc21", "Potency": "inactive"},
      {"molecule": "Cc1ccc(C)n1-c1sccc1C(=O)O", "Potency": "inconclusive: 7.08 µM [inhibitor, partial curve, poor fit]"},
      {"molecule": "CC1(C)CC2CC(C)(CN2C(=O)c2cc(-c3ccccc3)on2)C1", "note": "(configuration not stated)", "Potency": "inactive"},
      {"molecule": "CCC(=O)N1CCc2cc(S(=O)(=O)NCCC(=O)Nc3ccc(C)cc3)ccc21", "Potency": "inactive"},
      {"molecule": "CCN(CC)c1ccc(NC(=O)c2ccc3c(c2)OCO3)cc1", "Potency": "inconclusive: 12.6 µM [inhibitor, partial curve, poor fit]"},
      {"molecule": "Cc1cccc(NCc2nc3ccccc3n2CCOc2ccccc2C)c1", "Potency": "inactive"},
      {"molecule": "Cc1cccc(C)c1NC(=S)NC(C)CCc1ccccc1", "note": "(configuration not stated)", "Potency": "inconclusive: 28.2 µM [inhibitor, single point]"},
      {"molecule": "CCCCc1nc2cc(C(=O)N3CCNC(=O)C3CC(=O)OC)ccc2o1", "note": "(configuration not stated)", "Potency": "inactive"},
      {"molecule": "Cc1c(NC(=O)c2ccc(N3CCCC3)c([N+](=O)[O-])c2)cccc1-c1nc2ccccc2s1", "Potency": "inconclusive: 0.891 µM [inhibitor, partial curve, poor fit]"},
      {"molecule": "O=C(CN1C(=O)NC2(CCCCCCC2)C1=O)Nc1cccc(Br)c1", "Potency": "inconclusive: 11.2 µM [inhibitor, single point]"},
      {"molecule": "COc1ccc2sc(N(CCCN(C)C)C(=O)c3ccc(S(=O)(=O)N4CCc5ccccc5C4)cc3)nc2c1", "Potency": "inconclusive: 3.16 µM [inhibitor, single point]"},
      {"molecule": "O=C1NC(=S)S/C1=C\\c1cc(Cl)ccc1Cl", "Potency": "inconclusive: 11.2 µM [inhibitor, single point]"},
      {"molecule": "Cc1cc2oc(=O)c(CC(=O)NCCCO)c(C)c2c2occ(C(C)(C)C)c12", "Potency": "inconclusive: 10 µM [inhibitor, single point]"},
      {"molecule": "CCC(C(=O)NC1CCCCC1)n1c(SCc2ccc(F)cc2)nc2ccncc21", "note": "(configuration not stated)", "Potency": "inconclusive: 3.16 µM [inhibitor, partial curve, poor fit]"},
      {"molecule": "CCc1ccc(C2Sc3ccccc3NC3=C2C(=O)c2ccccc23)cc1", "note": "(configuration not stated)", "Potency": "inconclusive: 14.1 µM [inhibitor, single point]"},
      {"molecule": "CCCCOc1ccc(-c2[nH]ncc2C=O)cc1", "Potency": "inconclusive: 28.2 µM [inhibitor, single point]"},
      {"molecule": "COc1ccc(OCC(O)CNC(C)c2ccccc2)cc1", "note": "(configuration not stated)", "Potency": "inactive"},
      {"molecule": "CC(C)c1nnc(NC(=O)CCS(=O)(=O)c2nc(-c3cccs3)cc(C(F)(F)F)n2)s1", "Potency": "inconclusive: 28.2 µM [inhibitor, single point]"},
      {"molecule": "CCCc1cc(-c2[nH]ncc2-c2ccc3c(c2)OCCCO3)c(O)cc1O", "Potency": "inconclusive: 8.91 µM [inhibitor, partial curve]"},
      {"molecule": "CC(C)=CCCC1(C)C=Cc2c(ccc3c2[nH]c2cc(O)c(C)cc23)O1", "note": "(configuration not stated)", "Potency": "inconclusive: 10 µM [inhibitor, single point]"},
      {"molecule": "C=CCNC(=S)N/N=C/c1ccc(OCc2ccccc2Cl)cc1", "Potency": "inconclusive: 2 µM [inhibitor, full curve, poor fit]"},
      {"molecule": "CCn1nc(C)cc1C(=O)Sc1ccc(Cl)cc1Cl", "Potency": "inconclusive: 28.2 µM [inhibitor, single point]"},
      {"molecule": "CCC(=O)N1CCc2cc(S(=O)(=O)NC(CC(C)C)C(=O)Nc3cc(C)ccc3OC)ccc21", "note": "(configuration not stated)", "Potency": "inactive"},
      {"molecule": "c1ccc(-c2nccc(-c3ccc(-n4cnc5ccccc54)cc3)n2)cc1", "Potency": "inconclusive: 28.2 µM [inhibitor, single point]"},
      {"molecule": "CC1CCN(c2ccc([N+](=O)[O-])c(SCCO)c2)CC1", "Potency": "inconclusive: 12.6 µM [inhibitor, partial curve, poor fit]"},
      {"molecule": "CC(C)CN1C(=O)/C(=C/c2cccs2)NC1=S", "Potency": "inconclusive: 10 µM [inhibitor, single point]"},
      {"molecule": "CC(C)C[C@H]1CN=C(Nc2ccccc2)N1CC1CCC1", "Potency": "inconclusive: 3.98 µM [inhibitor, partial curve]"},
      {"molecule": "Cc1ccc(Nc2cc(-n3cccn3)ncn2)c(C)c1", "Potency": "inactive"},
      {"molecule": "O=[N+]([O-])c1cccc(/C=N/Nc2nc(NCc3ccccc3)nc(N3CCOCC3)n2)c1O", "Potency": "inconclusive: 10 µM [inhibitor, partial curve, poor fit]"},
      {"molecule": "Cc1c(Cl)cccc1NC(=O)c1cc2sccc2n1Cc1ccc(F)cc1", "Potency": "inconclusive: 31.6 µM [inhibitor, single point]"},
      {"molecule": "O=C(COc1ccc(Cl)cc1Cl)N1CCCN(C(=O)COc2ccc(Cl)cc2Cl)CC1", "Potency": "inconclusive: 17.8 µM [inhibitor, partial curve, poor fit]"},
      {"molecule": "Oc1ccccc1/C=N/NC(=S)NC1CC2CCC1C2", "note": "(configuration not stated)", "Potency": "inconclusive: 0.447 µM [inhibitor, partial curve, poor fit]"},
      {"molecule": "Cc1ccnc(NC(=O)CCCc2c[nH]c3ccccc23)c1", "Potency": "inconclusive: 14.1 µM [inhibitor, partial curve, poor fit]"},
      {"molecule": "CCS(=O)(=O)N1CCC2(CC1)OC(=O)C(C)=C2C(=O)NCc1ccccc1C", "Potency": "inactive"},
      {"molecule": "CC(OC(=O)c1ccccc1Br)C(=O)Nc1nc(-c2cccc([N+](=O)[O-])c2)cs1", "note": "(configuration not stated)", "Potency": "inactive"},
      {"molecule": "N#C/C(=C/c1cn(CC(=O)O)c2ccccc12)C(=O)NCc1ccccc1", "Potency": "inconclusive: 28.2 µM [inhibitor, single point]"}
    ]}
  ]
}
